PubChem BioAssay AID652104 (National Center for Advancing Translational Sciences (NCATS), 2013)
About 7,200 (1.8%) of roughly 410,000 compounds were called active. Inconclusive results, whose numbers are uncertain, are shown with a selection of clear calls. Calls follow the shape of the dose curve; as a rule, active = well fitted activation curve with a large enough effect; inconclusive = small, poorly fitted or top-dose-only effect, or another doubt; inactive = no such curve, though single readings can be large or run the other way. No potency is given beside an inconclusive call; the fits are too rough.

Experiment: qHTS of TDP-43 Inhibitors; also: nearly all actives have a fitted effect of over 50% in size; as to growth rescue (activation): % of control where 0% means no effect
Settings: TDP-43 expressing yeast growth rescue, BacTiter-Glo, 24 h; growth rescue (activation): at 46.1 µM (top of the series) unless noted
Procedure, shortened: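 Luminescence from BacTiter-Glo reports growth of TDP-43-expressing yeast after 24 hr at 30 deg C with compound. Cells were raffinose-pregrown to mid-log, then seeded in galactose medium at OD600=0.02.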
Potency is read from the fitted curve at half-maximal effect; tags tell the direction and shape of the fitted curve.

Compound	Potency	growth rescue (activation)
CCc1cc2c(SCC(=O)C(C#N)=C3N(C)c4ccccc4N3C)ncnc2s1	inconclusive [activator, full curve, poor fit]	
O=C(Nc1ccc(Cl)cc1)C1CCCC1	inconclusive [activator, full curve]	
CCCNC(=O)C1(C)CCN(C(=O)C2(c3ccc(Cl)cc3)CCCC2)C1 (stereo unspecified)	inconclusive [activator, partial curve, poor fit]	
O=C(NN=Cc1cccc(O)c1O)c1ccccc1	inconclusive [activator, partial curve, poor fit]	
COc1ccc(Nc2oc(COc3ccc(Cl)cc3)nc2C#N)cc1	active: 28.2 µM	
CC(=O)c1ccc(OCc2cc(C(=O)N3CCN(C4CCCC4)C(=O)C3)no2)cc1	inconclusive [activator, single point]	
Cc1ccc(CCNC(=O)c2ccc(Nc3nc4ccccc4n4nnnc34)cc2)cc1	inconclusive [activator, partial curve]	
Cc1cc(=O)oc2cc(OCc3ccccc3)ccc12	inactive	
COc1cc(OC)c(NC(=O)CCc2c(C)nc3c4c(C)cc(C)nc4nn3c2C)cc1Cl	inactive	
CCCCCN1C(C(=O)c2ccccc2)=C(OC(=O)CC)c2ccccc2S1(=O)=O	inconclusive [activator, single point]	
O=C(O)/C(=C\c1ccccc1)c1ccccc1	inconclusive [activator, single point]	
O=[N+]([O-])c1cccnc1C1OCCO1	inconclusive [activator, full curve, poor fit]	
CC(NC(=O)c1ccc2c(c1)sc1nc(-c3ccc(F)cc3)cn12)C12CC3CC(CC(C3)C1)C2 (stereo unspecified)	inactive	
FC(F)(F)c1cccc(Nc2c3c(nc4ccc(Cl)cc24)CCC3)c1	inconclusive [activator, partial curve, poor fit]	
COc1cccc(/C=C/c2nc(C#N)c(N3CCN(C)CC3)o2)c1	inactive	
Cc1cccn2cc(COc3ccc(-c4ccccc4)cc3)nc12	inconclusive [activator, single point]	
COc1cc(CN2C(=O)C(C)ON=C2c2cccs2)cc(OC)c1 (stereo unspecified)	inconclusive [activator, partial curve]	
Cc1cc(C)c2c(CC(=O)Nc3cc(C(F)(F)F)ccc3Cl)coc2c1	inactive	
COc1ccc(-n2ncc3c(NCc4ccccn4)ncnc32)cc1	inconclusive [activator, partial curve]	
CCOC(=O)c1sc2nc(C)cc(C)c2c1N	inconclusive [activator, partial curve]	
CSc1ccc(OC2(C)CCN(Cc3ccccc3)C2)cc1 (stereo unspecified)	inconclusive [activator, partial curve, poor fit]	
CC(C)c1nn2c(=O)cc(COC(=O)c3ccc(NC(=O)c4cccs4)cc3)nc2s1	inactive	
Clc1ccc(C2=CSC3=Nc4cccc5cccc(c45)N23)cc1	active: 17.8 µM	
O=C(Nc1nc(-c2ccccn2)cs1)C1CC1	inactive	

Compound	Potency	growth rescue (activation)
CCCCCCCc1ccc(-c2ccc(O)cc2)nc1	inconclusive [activator, single point]	
Cc1ccccc1NC(=O)Cn1nnc(S(=O)(=O)c2ccc(C(C)(C)C)cc2)c1N	inconclusive [activator, single point]	
CC1CCCC(C)N1C(=O)COc1cccc(Oc2ccccc2)c1 (stereo unspecified)	inconclusive [activator, partial curve]	
CCOC(=O)C1CCN(CC(C)(C)NS(=O)(=O)c2ccc(Cl)cc2)CC1	inactive	
COc1ccc(S(=O)(=O)N(CC(=O)NC(C)c2ccccc2)c2ccc(C)cc2)cc1OC (stereo unspecified)	inconclusive [activator, single point]	
Cc1ccc(NC(=O)c2ccc3c(c2)NC(=O)c2ccccc2S3)c(Cl)c1	inactive	
Cc1nc(-c2ccc(Cl)cc2)sc1CCNC(=O)C(=O)Nc1ccc2c(c1)OCO2	inactive	
CCc1cccc(NC(=O)CSc2nc(C)cs2)c1	inconclusive [activator, partial curve]	
Cc1ccc(NS(=O)(=O)c2ccc(-c3csc(C)n3)s2)c(C)c1	inconclusive [activator, single point]	
COC(=O)c1cc(Br)ccc1NC(=O)Nc1ccccc1	inconclusive [activator, full curve, poor fit]	
Cc1ccccc1N1CCN(C2=NC(=O)/C(=C\c3cccs3)S2)CC1	inconclusive [activator, partial curve]	
O=C(CCSc1ccccc1)NCCSCc1ccccc1	inconclusive [activator, full curve]	
Cc1nc(CNS(=O)(=O)c2ccc3ccccc3c2)cs1	active: 14.1 µM	
CC(C)(C)c1cc(NC(=O)CCl)n(-c2ccccc2)n1	inconclusive [activator, single point]	
CCn1c(SCc2cc(=O)n3ccsc3n2)nc2ccccc21	inconclusive [activator, full curve, poor fit]	
COc1cccc2c1C(=O)c1c(O)c3c(c(O)c1C2=O)CC(O)(C(C)=O)CC3OC1CC(O)C(O)C(C)O1 (stereo unspecified)	inactive	
Cc1ccc(Oc2ccccc2NC(=O)CSCC(=O)Nc2cc(C)on2)cc1	inconclusive [activator, partial curve, poor fit]	
Cc1nc(NC(=O)c2ccc3c(c2)OCCO3)ccc1Br	active: 12.6 µM	
CSc1nn(Cc2ccc(F)cc2)c(N(C(C)=O)C(C)=O)c1S(=O)(=O)c1ccccc1	inconclusive [activator, partial curve]	
Cc1ccc(C(=O)/C=C/c2ccco2)c(O)c1	inconclusive [activator, full curve, poor fit]	
O=[N+]([O-])/C=C/c1cn(Cc2ccccc2)c2ccccc12	active: 10 µM	
CC(=O)NC1C(OC(=O)/C=C/c2ccccc2)OC(COC(C)=O)C(OC(C)=O)C1OC(C)=O (stereo unspecified)	inactive	
Cc1cccc(C(=O)N2CCc3ccccc3C2)c1[N+](=O)[O-]	inconclusive [activator, single point]	
CC(C)COc1ccc(C(=O)Nc2ncn[nH]2)cc1	inconclusive [activator, partial curve]	

Compound	Potency	growth rescue (activation)
Cc1c(C)c2c(C)nn(-c3ccccc3)c2[nH]c1=O	inconclusive [activator, partial curve]	
Cc1ccccc1S(=O)(=O)Cc1ccc(C(=O)N2CCN(c3cccc(C)c3C)CC2)o1	inconclusive [activator, single point]	
COc1ccc(/C=C/c2nc(C#N)c(N3CCCCC3)o2)cc1OC	inconclusive [activator, single point]	
C=C(C)COc1ccc2c(c1)CCC1C2CCC2(C)C(=O)C(=NO)CC12 (stereo unspecified)	inconclusive [activator, partial curve]	
c1ccc(CCn2nnnc2C(c2cccnc2)N2CCN(c3nc4ccccc4s3)CC2)cc1 (stereo unspecified)	inconclusive [activator, single point]	
COc1ccc(Cl)cc1S(=O)(=O)NC(C)C(=O)NCc1ccncc1 (stereo unspecified)	inactive	
COc1ccc(NC(=S)Nc2ccccc2SC)c(OC)c1	inconclusive [activator, partial curve, poor fit]	
Cc1noc(C)c1COc1ccc(C(=O)OCC(=O)NC(=O)C2COc3ccccc3O2)cc1 (stereo unspecified)	inactive	
Cc1ccc(Cl)cc1-n1ncc2c(NCCc3ccccc3)ncnc21	active: 22.4 µM	
COc1ccc(-c2nn(-c3ccccc3)cc2C(=O)N(C)CC(=O)Nc2cccc(F)c2)cc1	inconclusive [activator, single point]	
Cc1cccc(CSc2cn(CC(=O)N3CCOCC3)c3ccccc23)c1	inconclusive [activator, partial curve]	
c1ccc(CSC2=NNC(c3ccccn3)S2)cc1 (stereo unspecified)	inactive	
Cc1ccc(N=c2oc3cc(O)ccc3cc2C(N)=O)cc1	inconclusive [activator, partial curve]	
Nc1nc(-c2ccc3ccccc3c2)cs1		inconclusive: -41.8% [activator]
C=C(C)C(=O)OCCCCCCOc1ccc(C(=O)O)cc1	inconclusive [activator, full curve]	
COCCCNC(=O)/C=C/c1ccc(Cl)cc1Cl	active: 14.1 µM	
Cc1nn(Cc2ccccc2)c(Cl)c1C(=O)NCCc1ccccc1	inconclusive [activator, partial curve]	
COc1ccc(Br)cc1-c1noc(-c2ccccc2F)n1	inactive	
N/C(=N\OC(=O)CCCCCN1C(=O)c2ccccc2C1=O)c1ccccn1	inconclusive [activator, single point]	
Cc1ccc2ccc3cc(C(=O)N4CCN(c5ccccc5F)CC4)nc3c2[nH]1	inconclusive [activator, partial curve]	
CCC(C(=O)OCC(=O)Nc1ccc(SC(F)F)cc1)c1ccccc1 (stereo unspecified)	active: 10 µM	
O=C(Nc1ccc2c(c1)OCCO2)c1cccnc1Oc1ccc(Cl)cc1	inconclusive [activator, single point]	
CCC(=O)N1CCc2cc(Br)cc(S(=O)(=O)N3CCCC(C(=O)Nc4ccc(C)c(F)c4)C3)c21 (stereo unspecified)	inactive	
